From PMC5077188 (2016)

Key:
[1] = target: M18.1; experiment: BLI
[2] = target: M11.1, SUMO-rcSso7d fusion protein (Sulfolobus solfataricus, UniProt P39476); experiment: BLI
[3] = target: M18.2.5; experiment: BLI
[4] = target: M11.2; experiment: BLI
[5] = target: M11.1.5; experiment: BLI
[6] = target: M18.2; experiment: BLI
[7] = target: M18.2.2; experiment: BLI
[8] = target: M11.1.3; experiment: FACS; yeast surface display titration
[9] = target: M18.2, displayed on yeast (Sulfolobus solfataricus, UniProt P39476); experiment: FACS; yeast surface display titration
[10] = target: M18.2.5; experiment: FACS; yeast surface display titration
[11] = target: M18.1, displayed on yeast (Sulfolobus solfataricus, UniProt P39476); experiment: FACS; yeast surface display titration
[12] = target: M11.1.5; experiment: FACS; yeast surface display titration
[13] = target: M18.2.2; experiment: FACS; yeast surface display titration
[14] = target: M11.2, displayed on yeast (Sulfolobus solfataricus, UniProt P39476); experiment: FACS; yeast surface display titration

Chain of M18.2.5 (P07724 25-608): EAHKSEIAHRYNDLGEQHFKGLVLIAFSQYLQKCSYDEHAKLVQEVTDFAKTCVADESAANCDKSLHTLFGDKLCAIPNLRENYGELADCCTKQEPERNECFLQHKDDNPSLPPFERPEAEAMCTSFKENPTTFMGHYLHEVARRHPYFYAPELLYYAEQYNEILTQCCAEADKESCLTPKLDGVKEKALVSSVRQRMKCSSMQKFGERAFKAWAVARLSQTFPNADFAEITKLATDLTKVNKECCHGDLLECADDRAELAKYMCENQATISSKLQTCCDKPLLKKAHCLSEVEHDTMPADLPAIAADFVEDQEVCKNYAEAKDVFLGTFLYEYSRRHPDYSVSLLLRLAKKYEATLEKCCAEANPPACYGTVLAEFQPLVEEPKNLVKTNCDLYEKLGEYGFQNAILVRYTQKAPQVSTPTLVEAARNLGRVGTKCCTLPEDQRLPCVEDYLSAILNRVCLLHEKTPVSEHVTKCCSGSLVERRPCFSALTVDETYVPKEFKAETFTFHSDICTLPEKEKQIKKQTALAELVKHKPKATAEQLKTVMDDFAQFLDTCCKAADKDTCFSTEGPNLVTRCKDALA
Chain of M18.2.2 (P07724 25-608): as above
Chain of M11.1.5 (P07724 25-608): as above
Chain of M11.1.3 (P07724 25-608): as above
Chain of M18.1 (P07724 25-608): as above
Chain of M11.2 (P07724 25-608): as above
Chain of M18.2 (P07724 25-608): as above

B1: mouse serum albumin (natural protein)
chain: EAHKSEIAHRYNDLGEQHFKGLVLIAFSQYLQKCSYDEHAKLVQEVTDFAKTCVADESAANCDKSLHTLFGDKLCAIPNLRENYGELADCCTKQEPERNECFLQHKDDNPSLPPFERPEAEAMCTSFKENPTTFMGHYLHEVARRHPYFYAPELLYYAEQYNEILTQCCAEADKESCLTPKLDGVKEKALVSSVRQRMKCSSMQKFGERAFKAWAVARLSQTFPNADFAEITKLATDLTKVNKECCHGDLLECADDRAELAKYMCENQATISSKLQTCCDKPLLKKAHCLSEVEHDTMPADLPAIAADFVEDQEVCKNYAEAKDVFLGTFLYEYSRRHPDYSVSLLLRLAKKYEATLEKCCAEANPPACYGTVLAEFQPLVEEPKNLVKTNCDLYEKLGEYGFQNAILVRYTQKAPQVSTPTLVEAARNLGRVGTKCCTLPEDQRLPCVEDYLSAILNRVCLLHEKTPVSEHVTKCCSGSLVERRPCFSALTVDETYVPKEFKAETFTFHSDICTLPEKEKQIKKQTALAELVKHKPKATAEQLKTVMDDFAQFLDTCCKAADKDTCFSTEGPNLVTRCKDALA
modifications: biotin (EZ-Link Sulfo-NHS-LC-Biotin)
In the case of B1, the Kd [1] is reported as 215 nM, the Kd [2] is reported as 42 nM and the Kd [3] is reported as 26 nM. The Kd [4] was 170 nM, the Kd [5] was 5 nM and the Kd [6] was 205 nM. For the same binder, the Kd [7] was 26 nM, the Kd [8] was 23 nM and the Kd [9] was 977 nM. It also gave a Kd [10] of 49 nM, a Kd [11] of 819 nM and a Kd [12] of 19 nM. For the same binder, the Kd [13] was 66 nM and the Kd [14] was 892 nM.
